The supplement of paper PMC8728848
This is one part of the list.

Key:
Assay in all cases: glycan array binding signal (z-score within array); higher = stronger binding
Conditions in all cases: glycan notation: IUPAC condensed, linker removed
[1] = target: Neu5Ac(a2-3)Gal(b1-3)[Neu5Ac(a2-6)]GalNAc
In short: (§1)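 Negative Z-scores can be read as non-binding. The Z-score is calculated within each array and then averaged across arrays of one protein sequence at different concentrations or buffers and across linkers. Arrays, 3228 in all, were curated from the Consortium for Functional Glycomics database and kept only where the protein sequence was available.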

[2] = target: Neu5Ac(a2-3)Gal(b1-4)Glc
In short: as §1

[3] = target: Neu5Ac(a2-3)Gal(b1-4)GlcNAc
In short: as §1

[4] = target: Neu5Ac(a2-3)Gal(b1-4)GlcNAc(b1-3)Gal(b1-3)GlcNAc
In short: as §1

[5] = target: Neu5Ac(a2-3)Gal(b1-4)GlcNAc(b1-3)Gal(b1-4)GlcNAc
In short: as §1

[6] = target: Neu5Ac(a2-3)Gal(b1-4)GlcNAc(b1-3)Gal(b1-4)GlcNAc(b1-3)Gal(b1-4)GlcNAc
In short: as §1

[7] = target: Neu5Ac(a2-3)Gal(b1-4)GlcNAc(b1-3)Gal(b1-4)[Fuc(a1-3)]GlcNAc
In short: as §1

[8] = target: Neu5Ac(a2-3)Gal(b1-4)GlcNAc(b1-6)[Gal(b1-3)]GalNAc
In short: as §1

[9] = target: Neu5Ac(a2-3)Gal(b1-4)GlcNAc6S
In short: as §1

[10] = target: Neu5Ac(a2-3)Gal(b1-4)[Fuc(a1-3)]GlcNAc
In short: as §1

[11] = target: Neu5Ac(a2-3)Gal(b1-4)[Fuc(a1-3)]GlcNAc(b1-3)Gal
In short: as §1

[12] = target: Neu5Ac(a2-3)Gal(b1-4)[Fuc(a1-3)]GlcNAc(b1-3)Gal(b1-4)GlcNAc
In short: as §1

[13] = target: Neu5Ac(a2-3)Gal(b1-4)[Fuc(a1-3)]GlcNAc(b1-3)Gal(b1-4)[Fuc(a1-3)]GlcNAc(b1-3)Gal(b1-4)[Fuc(a1-3)]GlcNAc
In short: as §1

[14] = target: Neu5Ac(a2-3)Gal(b1-4)[Fuc(a1-3)]GlcNAc6S
In short: as §1

[15] = target: Neu5Ac(a2-3)Gal6S(b1-4)GlcNAc
In short: as §1

[16] = target: Neu5Ac(a2-3)Gal6S(b1-4)[Fuc(a1-3)]GlcNAc
In short: as §1

[17] = target: Neu5Ac(a2-3)GalNAc
In short: as §1

[18] = target: Neu5Ac(a2-3)GalNAc(b1-4)GlcNAc
In short: as §1

[19] = target: Neu5Ac(a2-3)[GalNAc(b1-4)]Gal(b1-4)Glc
In short: as §1

[20] = target: Neu5Ac(a2-3)[GalNAc(b1-4)]Gal(b1-4)GlcNAc
In short: as §1

[21] = target: Neu5Ac(a2-3)[Neu5Ac(a2-6)]GalNAc
In short: as §1

[22] = target: Neu5Ac(a2-6)Gal(b1-4)GlcNAc
In short: as §1

[23] = target: Neu5Ac(a2-6)Gal(b1-4)GlcNAc(b1-2)Man(a1-3)[Neu5Ac(a2-6)Gal(b1-4)GlcNAc(b1-2)Man(a1-6)]Man(b1-4)GlcNAc(b1-4)GlcNAc
In short: as §1

[24] = target: Neu5Ac(a2-6)Gal(b1-4)GlcNAc(b1-3)Gal(b1-4)GlcNAc
In short: as §1

[25] = target: Neu5Ac(a2-6)Gal(b1-4)GlcNAc(b1-3)Gal(b1-4)[Fuc(a1-3)]GlcNAc(b1-3)Gal(b1-4)[Fuc(a1-3)]GlcNAc
In short: as §1

[26] = target: Neu5Ac(a2-6)Gal(b1-4)GlcNAc6S
In short: as §1

[27] = target: Neu5Ac(a2-6)GalNAc
In short: as §1

[28] = target: Neu5Ac(a2-6)GalNAc(b1-4)GlcNAc
In short: as §1

[29] = target: Neu5Ac(a2-8)Neu5Ac
In short: as §1

[30] = target: Neu5Ac(a2-8)Neu5Ac(a2-3)Gal(b1-4)Glc
In short: as §1

[31] = target: Neu5Ac(a2-8)Neu5Ac(a2-3)[GalNAc(b1-4)]Gal(b1-4)Glc
In short: as §1

[32] = target: Neu5Ac(a2-8)Neu5Ac(a2-8)Neu5Ac
In short: as §1

[33] = target: Neu5Ac(a2-8)Neu5Ac(a2-8)Neu5Ac(a2-3)Gal(b1-4)Glc
In short: as §1

[34] = target: Neu5Ac(a2-8)Neu5Ac(a2-8)Neu5Ac(a2-3)[GalNAc(b1-4)]Gal(b1-4)Glc
In short: as §1

[35] = target: Neu5Ac(a2-8)Neu5Ac(a2-8)Neu5Ac(a2-8)Neu5Ac(a2-3)[GalNAc(b1-4)]Gal(b1-4)Glc
In short: as §1

[36] = target: Neu5Ac9Ac(a2-6)Gal(b1-4)GlcNAc
In short: as §1

[37] = target: Neu5Gc(a2-3)Gal(b1-3)GlcNAc
In short: as §1

[38] = target: Neu5Gc(a2-3)Gal(b1-3)[Fuc(a1-4)]GlcNAc
In short: as §1

[39] = target: Neu5Gc(a2-3)Gal(b1-4)Glc
In short: as §1

[40] = target: Neu5Gc(a2-3)Gal(b1-4)GlcNAc
In short: as §1

[41] = target: Neu5Gc(a2-3)Gal(b1-4)[Fuc(a1-4)]GlcNAc
In short: as §1

[42] = target: Neu5Gc(a2-6)Gal(b1-4)GlcNAc
In short: as §1

[43] = target: Neu5Gc(a2-6)GalNAc
In short: as §1

B1: DC SIGN CRD (Homo sapiens), Q9NNX6 (protein)
chain: QPCPWEWTFFQGNCYFMSNSQRNWHDSITACKEVGAQLVVIKSAEEQNFLQLQSSRSNRFTWMGLSDLNQEGTWQWVDGSPLLPSFKQYWNRGEPNNVGEEDCAEFSGNGWNDDKCNLAKFWICKKSAWSHPQFEK
In the case of B1, the “glycan array binding signal (z-score)” value [1] is reported as -0.378, the “glycan array binding signal (z-score)” value [2] is reported as -0.386 and the “glycan array binding signal (z-score)” value [3] is reported as -0.387. For the same binder, the “glycan array binding signal (z-score)” value [4] was -0.36, the “glycan array binding signal (z-score)” value [5] was -0.383 and the “glycan array binding signal (z-score)” value [6] was -0.389. The “glycan array binding signal (z-score)” value [7] was -0.369, the “glycan array binding signal (z-score)” value [8] was -0.381 and the “glycan array binding signal (z-score)” value [9] was -0.274. For the same binder, the “glycan array binding signal (z-score)” value [10] was -0.361, the “glycan array binding signal (z-score)” value [11] was -0.378 and the “glycan array binding signal (z-score)” value [12] was -0.284. The “glycan array binding signal (z-score)” value [13] was -0.283, the “glycan array binding signal (z-score)” value [14] was -0.371 and the “glycan array binding signal (z-score)” value [15] was -0.405. For the same binder, the “glycan array binding signal (z-score)” value [16] was -0.394, the “glycan array binding signal (z-score)” value [17] was -0.386 and the “glycan array binding signal (z-score)” value [18] was -0.379. For the same binder, the “glycan array binding signal (z-score)” value [19] was -0.356, the “glycan array binding signal (z-score)” value [20] was -0.296 and the “glycan array binding signal (z-score)” value [21] was -0.384. For the same binder, the “glycan array binding signal (z-score)” value [22] was -0.382, the “glycan array binding signal (z-score)” value [23] was -0.313 and the “glycan array binding signal (z-score)” value [24] was -0.37. For the same binder, the “glycan array binding signal (z-score)” value [25] was -0.044, the “glycan array binding signal (z-score)” value [26] was -0.378 and the “glycan array binding signal (z-score)” value [27] was -0.391. The “glycan array binding signal (z-score)” value [28] was -0.365, the “glycan array binding signal (z-score)” value [29] was -0.36 and the “glycan array binding signal (z-score)” value [30] was -0.227. For the same binder, the “glycan array binding signal (z-score)” value [31] was -0.183, the “glycan array binding signal (z-score)” value [32] was -0.397 and the “glycan array binding signal (z-score)” value [33] was -0.402. The “glycan array binding signal (z-score)” value [34] was -0.199, the “glycan array binding signal (z-score)” value [35] was -0.323 and the “glycan array binding signal (z-score)” value [36] was -0.047. For the same binder, the “glycan array binding signal (z-score)” value [37] was -0.273, the “glycan array binding signal (z-score)” value [38] was -0.042 and the “glycan array binding signal (z-score)” value [39] was -0.357. The “glycan array binding signal (z-score)” value [40] was -0.335, the “glycan array binding signal (z-score)” value [41] was -0.393 and the “glycan array binding signal (z-score)” value [42] was -0.379. For the same binder, the “glycan array binding signal (z-score)” value [43] was -0.397.
